Here are results for one molecule from US20250387505A1, “ANTI-FGFR3 ANTIBODY CONJUGATE AND MEDICAL USE THEREOF” (GENEQUANTUM HEALTHCARE (SUZHOU) CO., LTD., priority 2022, published 2025).

For one assay, the system named is RT112 cells. Nature of the assay: Bladder cancer CDX model. In kind it is in vivo, BALB/c nude mice. On the procedure: 8.1) RT112 cells in exponential growth stage were collected and counted for tumor inoculation. 0.2 mL of matrix gel buffer (PBS:Matrigel=1:1) was used to subcutaneously inject 10×10^6 cells into the right flank of SPF female BALB/c nude mice aged 6-8 weeks.
(§1) The tumor diameter was measured with a caliper and the tumor volume was calculated according to the formula V=0.5 a×b^2 (wherein a is the long diameter of the tumor and b is the short diameter of the tumor). When the mean tumor volume was about 100-300 mm^3, the mice were randomized into vehicle group, ADC19 5 mg/kg group and ADC20 5 mg/kg group. The day of first administration is defined as day 0. Mice in the vehicle group were given the solvent of ADC drugs with the same frequency and administration route. The tumor volume of mice in each group was measured twice a week. The experiment was end on day 27, and the tumor growth inhibition rate (TGI) was calculated as follows: TGI (%)=[1−(the mean tumor volume of the treatment group on the end day−the mean tumor volume of the treatment group on the first day)/(the mean tumor volume of the vehicle group on the end day−the mean tumor volume of the vehicle group on the first day)]×100%.
8.2) For evaluation the dose-dependent antitumor efficacy in bladder cancers, the RT112 cells bearing BALB/c nude mice were randomized grouped and treated by solvent; ADC20 8 mg/kg single dose and ADC20 8 mg/kg, QW, 2 times. The experiment was end on day 33, and the tumor growth inhibition rate (TGI) was calculated as follows: TGI (%)=[1−(the mean tumor volume of the treatment group on the end day−the mean tumor volume of the treatment group on the first day)/(the mean tumor volume of the vehicle group on the end day−the mean tumor volume of the vehicle group on the first day)]×100%. The ADC groups continued to be observed until day 84.

In another assay the test system is SW780 cells. Nature of the assay: Bladder cancer CDX model. The format is in vivo, NOD SCID mice. Conditions: 5 mg/kg, QW, 2 times, day 20. The protocol: 8.3) SW780 cells in exponential growth stage were collected and counted for tumor inoculation. 0.2 mL of matrix gel buffer (PBS:Matrigel=1:1) was used to subcutaneously inject 10×10^6 cells into the right flank of SPF female NOD SCID mice aged 6-8 weeks.
as §1, with “a×b^2.” for “a×b^2 (wherein a is the long diameter of the tumor and b is the short diameter of the tumor).”, “20,” for “27,”

A further assay has as its system UM-UC1 cells. The experiment in a line: Bladder cancer CDX model. In kind it is in vivo, Balb/c nude mice. The following applies: 8 mg/kg, QW, 2 times, day 17. On the procedure:
8.4) UM-UC1 cells in exponential growth stage were collected and counted for tumor inoculation. 0.1 mL of matrix gel buffer (PBS:Matrigel=1:1) was used to subcutaneously inject 10×10^5 cells into the right flank of SPF female Balb/c nude mice aged 6-8 weeks.
as §1, with “V=0.5 a×b^2.” for “V=0.5 a×b^2 (wherein a is the long diameter of the tumor and b is the short diameter of the tumor).”, “vehicle” for “vehicle group, ADC19 5 mg/kg”, “ADC20 8” for “ADC20 5”, “day 17,” for “day 27,”

The next assay deals with KMS11 cells. The experiment in a line: Multiple myeloma CDX model. The format is in vivo, CB17.SCID mice. Conditions: 5 mg/kg, QW, 2 times, day 32. The protocol:
To evaluate the in vivo anti-tumor efficacy of ADC19 and ADC20 in mice bearing multiple myeloma FGFR3 overexpressed CDX model, KMS11 cells in exponential growth stage were collected and counted for tumor inoculation. 0.2 mL of matrix gel buffer (PBS:Matrigel=1:1) was used to subcutaneously inject 10×10^6 cells into the right flank of SPF female CB17.SCID mice aged 6-8 weeks.
as §1, with “a×b^2.” for “a×b^2 (wherein a is the long diameter of the tumor and b is the short diameter of the tumor).”, “32,” for “27,”

Assay [1] has as its system FGFR3-positive RT112 cells and FGFR3-negative U87MG cells. The experiment in a line: Bystander killing effect in RT112/U87MG co-culture. The format is cell-based. The following applies: incubation for a week, FIG. 11. The protocol:
Far-Red labelled FGFR3-positive RT112 cells and CFSE labelled FGFR3-negative U87MG cells were seeded onto 96 well round bottom plate with 1.0×10^4 cells for each cell types. The cells were incubated overnight for stable adhesion to plate, followed by treatment with ADCs or PBS and incubation for a week. After incubation, the cells were centrifuged at 2300 rpm for 2 min, and then supernatant was discarded. The cells were washed once with PBS, detached, and resuspended into flow cytometry staining buffer containing LIVE/DEAD staining dye. Finally, the total amount of FGFR3-positive and FGFR3-negative cells and their viability were detected and analyzed by Flow cytometer (Novocyte, Agilent).

[2] abbreviates: 8 mg/kg, QW, 2 times (repeat), day 33.

B1: ADC20: ADC formed by ligase site-specific conjugation of Linker-Payload 2 to anti-FGFR3 antibody A9Q (conjugate)
heavy: EVQLLESGGGLVQPGGSLRLSCAASGFTFSSYDMSWVRQAPGKGLEWVSGIYSGDGSIYYADSVKGRFTISRDNSKNTLYLQMNSLRAEDTAVYYCAKDGPMNEESRFDYWGQGTLVTVSS[human IgG1 constant region not written out]
light: QSVLTQPPSASGTPGQRVTISCSGSSSNIGNNYVSWYQQLPGTAPKLLIYADSKRPSGVPDRFSGSKSGTSASLAISGLRSEDEADYYCASWDYSLSGYVFGGGTKLTVLGQPKAAPSVTLFPPSSEELQANKATLVCLISDFYPGAVTVAWKADSSPVKAGVETTTPSKQSNNKYAASSYLSLTPEQWKSHRSYSCQVTHEGSTVEKTVAPTECGALPETGG
Take B1: the TGI in the assay with RT112 cells (5 mg/kg, QW, 2 times, day 27) came out at 107.08%; in the assay on RT112 cells (setting [2]), 107.65%; in the assay on RT112 cells (8 mg/kg, single dose, day 33) it was 106.34%; with SW780 cells, 76.66%; with UM-UC1 cells, 82.71%; in the assay on KMS11 cells it was 108.31%. The Tumor volume in the assay on RT112 cells (5 mg/kg, QW, 2 times, day 27, Mean ± SEM) is reported as 32 ± 7 mm^3; with RT112 cells (setting [2]) it was 16 ± 16 mm^3; with RT112 cells (8 mg/kg, single dose, day 33), 36 ± 45 mm^3; in the assay on SW780 cells it was 526 ± 128 mm^3; with UM-UC1 cells it was 402 ± 104 mm^3; in the assay on KMS11 cells, 11 ± 1 mm^3. The “completed response (CR)” value in the assay with RT112 cells (8 mg/kg, QW, 2 times (repeated dose), observed until day 84) was “caused CR”. Moreover, the bystander killing effect entry in assay [1] is given as “more effective bystander killing effect than ADC 19”.
